Positions count from the first letter of the chain named. The list shows a part of the results.
T1: RBFOX1 RRM (Homo sapiens, UniProt Q9NWB1 109-208)
T1 sequence: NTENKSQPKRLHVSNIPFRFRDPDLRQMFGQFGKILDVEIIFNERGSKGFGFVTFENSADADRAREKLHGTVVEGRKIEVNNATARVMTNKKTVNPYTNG

B1: GGGUGGU (DNA:RNA)
RNA: GGGAGACCGGAAUUCAGAUUGUCCGGGUGGUUUAAAUCCCGUCGUAGCCACCA
DNA 1: CAATCTGAATTCCGGTCTCCC
DNA 2: TGGTGGCTACGACGGGATT
B2: CCCCGCA (DNA:RNA)
RNA: B1 RNA with G25C, G26C, G27C, U28C, G30C, U31A
DNA 1: CAATCTGAATTCCGGTCTCCC
DNA 2: TGGTGGCTACGACGGGATT
B3: UCGGUUA (DNA:RNA)
RNA: B1 RNA with G25U, G26C, U28G, G29U, G30U, U31A
DNA 1: CAATCTGAATTCCGGTCTCCC
DNA 2: TGGTGGCTACGACGGGATT
B4: CUAAACC (DNA:RNA)
RNA: GGGAGACCGGAAUUCAGAUUGUCCCUAAACCUUAAAUCCCGUCGUAGCCACCA
DNA 1: CAATCTGAATTCCGGTCTCCC
DNA 2: TGGTGGCTACGACGGGATT
B5: GUCUUGC (DNA:RNA)
RNA: B1 RNA with G26U, G27C, G29U, U31C
DNA 1: CAATCTGAATTCCGGTCTCCC
DNA 2: TGGTGGCTACGACGGGATT
B6: GUAGUGC (DNA:RNA)
RNA: B4 RNA with C25G, A28G, A29U, C30G
DNA 1: CAATCTGAATTCCGGTCTCCC
DNA 2: TGGTGGCTACGACGGGATT
B7: GAUCGGC (DNA:RNA)
RNA: B1 RNA with G26A, G27U, U28C, U31C
DNA 1: CAATCTGAATTCCGGTCTCCC
DNA 2: TGGTGGCTACGACGGGATT
B8: UCUAAAG (DNA:RNA)
RNA: B4 RNA with C25U, U26C, A27U, C30A, C31G
DNA 1: CAATCTGAATTCCGGTCTCCC
DNA 2: TGGTGGCTACGACGGGATT
B9: UUAUUUA (DNA:RNA)
RNA: B4 RNA with C25U, A28U, A29U, C30U, C31A
DNA 1: CAATCTGAATTCCGGTCTCCC
DNA 2: TGGTGGCTACGACGGGATT

target: T1, RBFOX1 RRM; assay: EMSA; HiTS-Eq, 1 nM pool, 10 min; buffer printed only for the single-RNA assays: 10 mM Tris pH 7.5, 150 mM NaCl, 3.4 mM EDTA, 0.001% NP-40, 30 C; settings: tags: His6 N-terminal (pET28a); label: 5' 32P
Outline: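 Purified RbFox RRM, wild type or mutant, was incubated for 10 min in 50 µL with 1 nM of a 5′-radiolabelled RNA pool carrying 7 randomized nucleotides, whose flanks were annealed to DNA oligonucleotides, over a series of increasing protein concentrations. Unbound RNA was resolved on 8% native PAGE, cut out, reverse-transcribed, barcoded by PCR and sequenced on an Illumina HiSeq 2500. Relative association constants were derived from changes in read counts for each RNA species versus the control reaction and normalised to the cognate motif.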

| Binder | binding signal |
| --- | --- |
| B1 | 0.0199 KA relative to UGCAUGU |
| B2 | 0.0132 KA relative to UGCAUGU |
| B3 | 0.0134 KA relative to UGCAUGU |
| B4 | 0.0017 KA relative to UGCAUGU |
| B5 | 0.0291 KA relative to UGCAUGU |
| B6 | 0.0154 KA relative to UGCAUGU |
| B7 | 0.0137 KA relative to UGCAUGU |
| B8 | 0.00728 KA relative to UGCAUGU |
| B9 | 0.00999 KA relative to UGCAUGU |
